Reference: a collection of fitness landscapes (doi:10.1016/j.celrep.2020.107928)
In all, about 81,000 sequences were measured (“one-hybrid fitness for binding parS DNA”: median about -0.17, highest 2% from about 0.51 on). The list shows a part of the results.

B1: Caulobacter ParB omega fusion; a variant is named by its letters at X, in order, B8GW30 (parent)
chain: MESVVVGEPGMSEGRRGLGRGLSALLGEVDAAPAQAPGEQLGGSREAPIEILQRNPDQPRRTFREEDLEDLSNSIREKGVLQPILVRPSPDTAGEYQIVAGERAWRAAQRAGLKTVPIMVRELDDLAVLEIGIIENVQRADLNVLEEALSYKVLMEKFERTQENIAQTIGKSXSHVANXMRLLXLPDEVQSYLVSGELTAXHARAIAAAADPVALAKQIIEGGLSVRETEALARKAPNLSAGKSKGGRPPRVKDTDTQALESDLSSVLGLDVSIDHRGSTGTLTITYATLEQLDDLCNRLTRGI

Variants of: B1
Experiment: one-hybrid fitness for binding parS DNA (scaled: cognate 1, non-cognate 0); higher = stronger binding
Conditions: with parS DNA site
Summary of the method: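 In E. coli USO, a HIS3 reporter with its site placed 19 bp from the promoter was used to select Caulobacter ParB variants randomised at four specificity codons. Growth lasted 48 hours at 37°C on histidine-free M9 containing 0.1 mM IPTG and 5 mM 3-AT. Fitness was taken as the log change in variant-to-wild-type read ratio from Illumina sequencing of pre- and post-selection plasmids, rescaled between the non-cognate and cognate sites.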

Variant | one-hybrid fitness for binding parS DNA
QIAK | ≤ 0.2
FKWG | ≤ 0.2
PTPR | ≤ 0.2
CETW | ≤ 0.2
VPVE | ≤ 0.2
PDGP | ≤ 0.2
QKVE | ≤ 0.2
YNNL | ≤ 0.2
FVKP | ≤ 0.2
HARY | ≤ 0.2
PPKY | ≤ 0.2
RMIY | 0.467
DTNF | ≤ 0.2
TMVR | ≤ 0.2
CCNR | ≤ 0.2
NSQS | ≤ 0.2
LRSK | ≤ 0.2
IAIT | ≤ 0.2
GHPK | ≤ 0.2
GMKN | ≤ 0.2
QATV | ≤ 0.2
HYGT | ≤ 0.2
GMRT | ≤ 0.2
LLAP | ≤ 0.2
ATMG | ≤ 0.2
SEVS | ≤ 0.2

Variant | one-hybrid fitness for binding parS DNA
TMNV | ≤ 0.2
DPQG | ≤ 0.2
NMHC | ≤ 0.2
DRSL | ≤ 0.2
GTLD | ≤ 0.2
ADAG | ≤ 0.2
DCLT | ≤ 0.2
YDCS | ≤ 0.2
KHLK | ≤ 0.2
YGAY | ≤ 0.2
QSIQ | ≤ 0.2
PWRC | ≤ 0.2
DDNS | ≤ 0.2
HRGG | 0.276
IVIT | ≤ 0.2
VLHK | ≤ 0.2
HSSC | ≤ 0.2
SPPK | ≤ 0.2
AQGV | ≤ 0.2
GYMS | ≤ 0.2
GVFL | ≤ 0.2
ETLA | ≤ 0.2
IQNI | ≤ 0.2
YENT | ≤ 0.2
CKSV | ≤ 0.2
YEMA | ≤ 0.2

Variant | one-hybrid fitness for binding parS DNA
LNIY | ≤ 0.2
AAKN | ≤ 0.2
QHPP | 0.294
LAIN | ≤ 0.2
WHSI | ≤ 0.2
HSLN | ≤ 0.2
TANT | ≤ 0.2
NEPS | ≤ 0.2
CGCN | 0.296
WHQV | ≤ 0.2
LCLV | ≤ 0.2
TMTF | ≤ 0.2
ACHT | ≤ 0.2
ESNM | ≤ 0.2
RYNM | 0.323
AQSC | ≤ 0.2
PADP | ≤ 0.2
VRGG | ≤ 0.2
YGAG | ≤ 0.2
EFHR | ≤ 0.2
NSFQ | ≤ 0.2
DTGC | ≤ 0.2
PASF | ≤ 0.2
STAH | ≤ 0.2
SNST | ≤ 0.2
NIQR | ≤ 0.2

Variant | one-hybrid fitness for binding parS DNA
YSAY | ≤ 0.2
QCFV | ≤ 0.2
VKDS | ≤ 0.2
MSKS | ≤ 0.2
PSGN | ≤ 0.2
RLHH | 0.204
LVIT | ≤ 0.2
EIYG | ≤ 0.2
RVDC | 0.846
QVEM | ≤ 0.2
YRDL | ≤ 0.2
AHYG | ≤ 0.2
QLTG | ≤ 0.2
TCPT | ≤ 0.2
TGNK | ≤ 0.2
WKYS | ≤ 0.2
CTER | ≤ 0.2
TMGL | ≤ 0.2
AGAF | ≤ 0.2
RIHD | ≤ 0.2
QLFR | ≤ 0.2
RKWY | 0.393
ASDR | ≤ 0.2
CRHG | ≤ 0.2
KQTI | ≤ 0.2
LPVC | ≤ 0.2

Variant | one-hybrid fitness for binding parS DNA
EESA | ≤ 0.2
NYQG | ≤ 0.2
QQHN | ≤ 0.2
HDPI | ≤ 0.2
KHVS | ≤ 0.2
KRVQ | ≤ 0.2
FSYW | ≤ 0.2
HDWM | ≤ 0.2
CPDW | ≤ 0.2
CYNA | ≤ 0.2
EDSR | ≤ 0.2
EPIF | ≤ 0.2
RLNR | ≤ 0.2
IIHD | ≤ 0.2
RDQV | ≤ 0.2
LTEL | ≤ 0.2
QIEP | ≤ 0.2
DMAT | ≤ 0.2
INME | ≤ 0.2
APCV | ≤ 0.2
REQN | ≤ 0.2
QALH | ≤ 0.2
LRLL | ≤ 0.2
LLAY | ≤ 0.2
IIQR | ≤ 0.2
HCFY | ≤ 0.2

Variant | one-hybrid fitness for binding parS DNA
SAST | ≤ 0.2
TLFQ | ≤ 0.2
DYKG | ≤ 0.2
SWNS | ≤ 0.2
HPST | ≤ 0.2
NQPV | ≤ 0.2
LAMR | ≤ 0.2
LFPC | ≤ 0.2
GITC | ≤ 0.2
TQAL | ≤ 0.2
NINC | ≤ 0.2
YIGS | ≤ 0.2
HMPT | ≤ 0.2
QMDY | ≤ 0.2
NDQS | ≤ 0.2
GPPQ | ≤ 0.2
RDTM | ≤ 0.2
KRVK | ≤ 0.2
LKMH | ≤ 0.2
YHKT | ≤ 0.2
AKKP | ≤ 0.2
SLCC | ≤ 0.2
TRDT | ≤ 0.2
